In all, about 320,000 compounds went through this assay and about 200 (0.062%) were called active. The inconclusive results got no clear call from the source; some entries with a clear call stand among them for comparison. Calls follow the shape of the dose curve; as a rule, active = well fitted activation curve with a large enough effect; inconclusive = small, poorly fitted or top-dose-only effect; inactive = no such curve, though single readings can be large or run the other way. No potency is given beside an inconclusive call; the fits are too rough.
Assay: qHTS assay for re-activators of p53 using a Luc reporter; also: nearly all actives have a fitted effect of over 45% in size; as to activity change, positive = activation: % of control where 0% means no effect
Conditions: H1299 p53-A138V BP100-luciferase reporter, luminescence, 24 h; series mostly up to 92.2 µM; activity change, positive = activation: at the top concentration
Procedure, shortened: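 p53-null H1299 cells stably carrying temperature-sensitive p53-A138V and a BP100-luciferase reporter were pinned with compounds (4-point, 1:5 series) and held 24 hrs at 37 deg C. Luminescence was read 10 min after detection reagent.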
Potency is read from the fitted curve at half-maximal effect; tags tell the direction and shape of the fitted curve.

Structure (SMILES) | Potency | activity change, positive = activation
CC(C)Cc1ccc(C(=O)NCCOc2ccccc2)o1 | inconclusive [activator, full curve, poor fit] | –
CCNC(=S)NNC(=O)c1cc(-c2cccc(OC)c2)nc2ccccc12 | inconclusive [activator, partial curve, poor fit] | –
CCOC(=O)Cn1c(S(=O)(=O)Cc2cccc(F)c2)nc(-c2ccccc2)c1-c1ccccc1 | inconclusive [activator, single point] | –
Cc1ccc2nc(-c3ccc(SCC(=O)Nc4ccc5c(c4)OCCO5)nc3)[nH]c2c1 | inconclusive [activator, full curve, poor fit] | –
CC(Sc1ccccc1F)C(=O)Nc1ccc2c(c1)OCCO2 (configuration not stated) | inconclusive [activator, full curve, poor fit] | –
O=C(/C=C/c1ccccc1Cl)Nc1cccc(O)c1 | inconclusive [activator, partial curve, poor fit] | –
C/C(N)=C(/C#N)C(=O)CSc1nnnn1-c1ccc(C)cc1C | inconclusive [activator, full curve, poor fit] | –
Nc1nc2nccc(-c3ccc(Cl)cc3)n2n1 | inconclusive [activator, partial curve, poor fit] | –
CNc1nc(Nc2ccc(C)c(Cl)c2)nc(N)c1[N+](=O)[O-] | inconclusive [activator, partial curve, poor fit] | –
c1ccc(C2Nc3ccccc3-c3nc4ccccc4n32)cc1 (configuration not stated) | inconclusive [activator, single point] | –
COc1ccc(C(=O)Nc2ccc3[nH]ncc3c2)cc1 | inconclusive [activator, partial curve, poor fit] | –
c1ccc2cc(-c3cc4ccccn4c3)ccc2c1 | inconclusive [activator, full curve, poor fit] | –
CCCCC(=O)OCC(=O)c1ccc(OCC)cc1 | inconclusive [activator, partial curve, poor fit] | –
N/C(=N\OC(=O)COc1ccc(Br)cc1)c1ccncc1 | inconclusive [activator, single point] | –
Cc1ccc(O)c(NC(=S)NC(=O)CC(C)C)c1 | inconclusive [activator, single point] | –
COCCN1Cc2cccc(C(=O)Nc3ccc4c(c3)OCCO4)c2C1=O | inconclusive [activator, partial curve, poor fit] | –
COc1ccc(C(=O)Cc2cc3cccc(OC)c3oc2=O)cc1 | – | inactive: 4.55%
